Results: publication PMC10907753 (Communications Biology, 2024)

Molecular target: Xcc NAMPT quadruple mutant (Xanthomonas campestris pv. campestris, UniProt A0A0H2X5R2, H175F/I224F/I332F/V291F)
Conditions: ITC

## NC(=O)c1cccnc1 [NAM, nicotinamide]
  affinity between the quadruple mutant and NAM: undetectable
